PubChem BioAssay AID1347073 (National Center for Advancing Translational Sciences (NCATS), 2019)
About 200 (0.44%) of roughly 45,000 compounds were called active. About 7% were inconclusive and are not listed. Calls come from the whole dose curve; as a rule, active = well fitted activation curve with a large enough effect; inconclusive = small, poorly fitted or top-dose-only effect; inactive = no such curve, though single readings can be large or run the other way. This is one part of the list.

assay: qHTS of TDP-43 Inhibitors: NCGC Sytravon Library Screen; conditions: yeast TDP-43 toxicity rescue, BacTiter-Glo growth, 24 h; series mostly up to 46.1 µM; growth rescue (activation): at the top concentration; note: 0% is about no effect; nearly all actives have a fitted effect of over 55% in size
Summary of the method: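 TDP-43-expressing yeast, pregrown in raffinose, seeded at OD600 0.02 in galactose medium with compound for 24 hr at 30 deg C. Growth read by BacTiter-Glo luminescence, so rescue of toxicity appears as activation.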

Structure (SMILES) | growth rescue (activation)
Cc1cc(=O)[nH]c2sc(C(=O)N3c4ccccc4CC3C)c(N)c12 (centres undefined) | inactive: 8.42%
COc1ccc(C(=O)N/N=C/c2ccc3cccc(O)c3n2)cc1 | inactive: 4.26%
CC(C)(C)C1CCc2oc3ccc(NS(=O)(=O)c4cc(Cl)ccc4Cl)cc3c2C1 (centres undefined) | inactive: 10.8%
COc1ccc(NC(=O)COC(=O)CCc2ccccc2)c(OC)c1 | inactive: 18.3%
Cc1nnc(SCC(=O)c2ccc(Cl)cc2)s1 | inactive: -0.824%
COc1cc(/C=C/C(=O)Nc2ccc(C(C)=O)cc2)cc(OC)c1OC | inactive: -6.17%
C=CCn1c(SCC(=O)NC(=O)Cc2ccccc2)nnc1-c1ccccc1F | inactive: 2.13%
O=C(c1cc2c(=O)n3ccccc3nc2s1)N1CCN(Cc2ccccc2)CC1 | inactive: 7.7%
C[N+](C)(CC#Cc1ccccc1)CC(=O)c1ccccc1 | inactive: -1.81%
COc1ccc(CN(C)C2c3ccccc3-c3ccccc32)cc1 | inactive: -0.346%
O=C(COc1ccc2c(-c3ccccc3)cc(=O)oc2c1)NCc1cccs1 | inactive: 10.4%
CCc1ccc2c(COC(=O)CNS(=O)(=O)c3ccc(NC(C)=O)cc3)cc(=O)oc2c1 | inactive: 12.4%
COc1ccc(C(=O)COC(=O)c2n[nH]c3ccccc23)c(OC)c1 | inactive: 2.04%
Cc1ccc(OCC(=O)NCCNC(=O)c2ccc(C)nc2)cc1 | inactive: -14.2%
Cc1nc2ccc(S(=O)(=O)NCC(=O)NCCN3CCCCCC3)cc2s1 | inactive: -26.8%
O=C(Nc1ccc(C(=O)O)cc1)/C(=C\c1ccc2c(c1)OCO2)NC(=O)c1ccccc1 | inactive: -7.76%
O=C(c1ccc(-c2ccc([N+](=O)[O-])cc2Cl)o1)N1CCOCC1 | inactive: 7.46%
COc1ccc(-c2cc(NC=O)c3ncc(-c4cccc(C(=O)N(C)C)c4)n3c2)cn1 | inactive: -2.38%
CC(=O)c1ccc(NC(=O)CSc2nc3[nH]c(=O)cc(O)c3s2)cc1 | inactive: -7.59%
COc1ccc(NC(=O)C2CC(=O)N(C(C)C)C2)cc1 (centres undefined) | inactive: 3.79%
Cc1c(NC(=S)SCc2ccccc2)c(=O)n(-c2ccccc2)n1C | inactive: -6.06%
CC(NC(=O)COC(=O)c1ccc2c(c1)OCCO2)c1ccccc1 (centres undefined) | inactive: -36.3%
CC1CN(S(=O)(=O)c2cccc(C(=O)OC/C(O)=C(\C#N)c3nc4ccccc4[nH]3)c2)CC(C)O1 (centres undefined) | inactive: -6.1%
CCC(=O)N(Cc1cc2cc(OC)ccc2[nH]c1=O)c1ccc(C)cc1 | inactive: -6.29%
O=C(Nc1cc(C(F)(F)F)ccc1Cl)c1cccnc1 | inactive: 10.3%
CC(O)(c1cccc(F)c1)c1nc(/C=C/c2ccccc2)cs1 (centres undefined) | inactive: -0.41%

Structure (SMILES) | growth rescue (activation)
Cc1ccc(OCCn2cc(/C=C(\C#N)C(=O)NCC3CCCO3)c3ccccc32)cc1 (centres undefined) | inactive: 7.38%
CCCC(=O)Nc1ccc2c(c1)nc(CCNC(=O)c1ccco1)n2C | inactive: -7.12%
Cc1cc2nsnc2c(S(=O)(=O)N2CCN(C)CC2)c1C | inactive: -5.61%
CC(C)C(NC(=O)c1c(F)cccc1F)C(=O)N1CCN(c2ccccc2F)CC1 (centres undefined) | inactive: -2.81%
CC(=O)c1cnc(Nc2ccc(C)cc2)s1 | inactive: 19.1%
COc1cc(Cl)c(C)cc1NC(=O)Cn1c(NCCO)nc2ccccc21 | inactive: -10.1%
COc1cccc(-c2cc3nc(NCc4ccc5occc5c4)n(C)c(=O)c3s2)c1 | inactive: 4.14%
Cc1ccnc(NC(=O)c2ccco2)n1 | inactive: -8.91%
O=C(COc1ccc(Cl)cc1)NCCCNC(=O)c1ccccn1 | inactive: -2.28%
COc1ccc(Nc2ccc(N3C(=O)CC(C)C3=O)cc2[N+](=O)[O-])cn1 (centres undefined) | inactive: 8.62%
NC(=O)c1ccc(NC(=O)COc2ccc([N+](=O)[O-])cc2Cl)cc1 | inactive: -1.2%
CCNC(=O)Nc1ccc(S(=O)(=O)Nc2cnc(C)nc2C)cc1 | inactive: -4.92%
COc1ccc(/C=C(/NC(=O)c2cccs2)C(=O)NCc2ccco2)cc1OC | inactive: -1.49%
CCCn1c(N)c(N(CCOC)C(=O)c2ccc([N+](=O)[O-])c(C)c2)c(=O)[nH]c1=O | inactive: -36.7%
COc1cccc(CC(NC(C)=O)C(=O)NC2CCN(S(=O)(=O)c3ccc(NC(C)=O)cc3)CC2)c1OC (centres undefined) | inactive: -6.95%
Cc1nnc(SCc2cc(=O)[nH]c(/N=C(\N)Nc3ccccc3)n2)s1 | inactive: 5.97%
COC(=O)c1c(NC(=O)C2CC=CCC2C(=O)O)sc(C(N)=O)c1C (centres undefined) | inactive: 13.6%
O=S(=O)(c1ccc(N=C2NN=C(c3cc(F)ccc3F)CS2)cc1)N1CCOCC1 | inactive: 12.2%
COc1ccc(CCN=C(N)Nc2nc(C)cc(C)n2)cc1 | inactive: 1.72%
CCc1nc2ccc(C(=O)NCCNC(C)=O)cn2c1N(CC)CCOC | inactive: 13.4%
Cc1cc(C)cc(NC(=O)c2c(C)nc3ccccn23)c1 | inactive: 14.3%
COc1cccc(-n2c([S-])c(C(=O)Nc3ccc(S(=O)(=O)N4CCOCC4)cc3)[n+]3cc(C(N)=O)ccc23)c1 | inactive: 10.1%
CCCN(c1ccccc1CC)S(=O)(=O)c1ccc2c(c1)CC(C)N2C(=O)C1CC1 (centres undefined) | inactive: -2.32%
NC(=O)c1ncc(C(F)(F)F)cc1Cl | inactive: -7.94%
CC12CCC(=O)N1C(C(=O)OCC(=O)Nc1ccc(S(N)(=O)=O)cc1)CS2 (centres undefined) | inactive: 2.02%
Cn1c(Cl)cnc1C1CC(=O)c2cc(Cl)ccc2O1 (centres undefined) | inactive: -77%

Structure (SMILES) | growth rescue (activation)
CC(=O)N1CCN(c2ccc(NC(=O)c3ccccc3Cl)cc2)CC1 | inactive: -2.94%
Cc1ccc(S(=O)(=O)NCC(=O)OCC(=O)N2CC(=O)Nc3ccccc32)cc1 | inactive: -10.1%
COc1ccc(/C=C\c2onc(C)c2S(=O)(=O)N2CCC(C(=O)NCc3ccco3)CC2)cc1 | inactive: 7.74%
CNC(=O)/C(C#N)=C\c1ccc(CNS(=O)(=O)c2ccccc2)o1 | inactive: -17.4%
COc1cc2ccccc2cc1C(=O)NC(=S)Nc1nnn(C)n1 | inactive: 5.57%
O=C(COc1ccc(Cl)cc1Cl)NN1C(=O)C2C3C=CC([C@@H]2C1=O)C31CC1 (some centres undefined) | inactive: -6.67%
CC(=O)Oc1ccc(/C=N/NC(=O)c2ccc(N(C)S(=O)(=O)c3ccccc3)cc2)cc1 | inactive: -0.0905%
CC(C)(CCO)Nc1ncnc2onc(-c3ccc(F)cc3)c12 | inactive: -4.41%
Nc1cc(Cl)nc(N/N=C/c2ccc([N+](=O)[O-])cc2)n1 | inactive: -26.3%
CC(C)(O)C#Cc1ccc([C@@H]2C[C@H]3CN(c4ccccc4)C(=O)[C@]34CCCN24)s1 | inactive: -3.38%
CC(NC(=S)NCc1ccccc1)C12CC3CC(CC(C3)C1)C2 (centres undefined) | inactive: 6.45%
Cc1ccc(OCc2cnc(Cl)s2)c(C)c1 | inactive: 12.1%
COc1ccc(NC(=O)Cn2nc(C(=O)O)c3ccccc3c2=O)cc1OC | inactive: -6.2%
NC(=O)c1ccc(NC(=O)COC(=O)CC(NC(=O)c2ccccc2Cl)c2ccccc2)cc1 (centres undefined) | inactive: 8.21%
O=C(NCc1cccs1)C1CCCN(C(=O)Nc2ccccc2)C1 (centres undefined) | inactive: 1.03%
CN(C(=O)COC(=O)c1cc(=O)[nH]c2ccccc12)c1ccccc1 | inactive: 6.7%
CC(C)(C)Cc1nnc(NC(=O)c2ccc3c(c2)OCO3)s1 | inactive: 8.11%
O=C(NC(=S)N1CCN(Cc2ccccc2)CC1)c1cccnc1 | inactive: 6.91%
CCOCC(=O)Nc1ccc(OCc2ccccc2)cc1 | inactive: 15.6%
Cn1ccnc1SCCNC(=O)CCc1nnc(CCc2ccccc2)o1 | inactive: -5.05%
CC1(C(=O)Nc2cccc3c2CCCC3)CCN1C(=O)CCc1ccc(Cl)cc1Cl (centres undefined) | inactive: 22.2%
Cc1cccc(N(C(=O)c2csnn2)C(C(=O)NCc2ccccc2)c2cccs2)c1 (centres undefined) | inactive: 9.56%
Cc1cccc2sc(NC(=O)Cn3c(C)csc3=O)nc12 | inactive: -2.97%
COc1ccc(OC)c(-n2c(SCC(=O)Nc3cccc(S(N)(=O)=O)c3)nc3ccccc3c2=O)c1 | inactive: 8.71%
COc1ccccc1N1CCN(C(=O)CN(C)S(=O)(=O)c2ccc3c(c2)c(=O)n(C)c(=O)n3C)CC1 | inactive: 3.73%
O=C(COc1ccc(Cl)cc1)NC(=S)Nc1ccccc1N1CCOCC1 | inactive: 32%

Structure (SMILES) | growth rescue (activation)
CC1COc2ccccc2N1C(=O)c1cccnc1Cl (centres undefined) | inactive: 12.4%
O=C(Cc1cccs1)N/N=C/C=C/c1ccco1 | inactive: 0.619%
Cc1ccc(NC(=O)/C(C#N)=C/c2ccc(C)o2)cc1 | inactive: 29.4%
Cc1ccc(Cn2cc(/C=N/Nc3ccc([N+](=O)[O-])cn3)c3ccccc32)cc1 | inactive: 9.71%
COc1ccc(NC(=O)CSc2sc3c(O)cc(=O)[nH]c3c2C#N)c(OC)c1 | inactive: 6.94%
COc1ccc(S(=O)(=O)N2CCCCC2)cc1NC(=O)CN1CCN(C(C)=O)CC1 | inactive: 14.6%
Cc1cc(NC(=O)c2cccc([N+](=O)[O-])c2)n(-c2ccccc2)n1 | inactive: 19.9%
COCCCNc1nc(N)c([N+](=O)[O-])c(NCC2CCCO2)n1 (centres undefined) | inactive: -3.55%
Cc1ccc(/C=C/C(=O)Nc2nnc(SCc3ccc(C#N)cc3)s2)o1 | inactive: 22.3%
CCOC(=O)C1(Cc2ccccc2C)CCCN(C(=O)CSC)C1 (centres undefined) | inactive: 18.1%
COCc1cc(C)nc(SCC(=O)Nc2nc(C)cs2)c1C#N | inactive: 23.3%
CC(C)(C)N(Cc1ccccc1)C(=O)COC(=O)CCc1c[nH]c2ccccc12 | inactive: 18.6%
Cc1ccc(NS(=O)(=O)c2ccc(C)c(NC(=O)COc3ccc4ccccc4c3)c2)c(C)c1 | inactive: 12.7%
CC(C)CC(C(=O)NC1CCCCC1)N(Cc1ccccc1)C(=O)c1snc(C(N)=O)c1N (centres undefined) | inactive: -18%
COc1ccc(NC(=O)C2C3C=CC4(O3)C2C(=O)N(CCCN2CCCCC2)C4C(=O)NC2CCCC(C)C2C)cc1 (centres undefined) | inactive: -27%
Cc1ccc(S(=O)(=O)N2CCN(C(=O)CNC(=O)c3ccc(Cl)cc3)CC2)cc1 | inactive: -25.6%
Cc1ccccc1NC(=O)c1cccc(S(=O)(=O)N2CCOCC2)c1 | inactive: 13.7%
FC(F)(F)c1nc(NCc2cccnc2)c2ccccc2n1 | inactive: 5.6%
CCOC(=O)c1c(CN(CC)CC)n(-c2ccccc2)c2ccc(O)cc12 | inactive: 8.37%
CNc1ccc2ncc(-c3ccccc3C(C)=O)n2n1 | inactive: 5.21%
COc1ccc(CCNC(=O)C(C)c2ccc([N+](=O)[O-])cc2)cc1 (centres undefined) | inactive: 32.4%
CCOc1ccccc1Nc1cc2n(c(=O)n1)CCc1cc(OC)c(OC)cc1-2 | inactive: 15.4%
COc1ccc(NC(=O)c2cc(F)cc(F)c2)cc1S(=O)(=O)N1CCCCC1 | inactive: 13.7%
CS(=O)(=O)Nc1ccccc1Oc1ccccc1 | inactive: 37%
O=C(NCCCO)c1cc2c([nH]c3ccccc32)c(-c2ccc(F)cc2)n1 | inactive: -6.29%
Cc1ccccc1C(=O)N1CCC(C(=O)N2CCN(Cc3ccc4c(c3)OCO4)CC2)CC1 | inactive: 16.7%
